# Measurements published in ChEMBL document CHEMBL4689842, “EUbOPEN Chemogenomics Library wave 1” (2021).
# Certain results were filed several times, with different values. The list is limited to them. The source may hold further records. Results that share an entry are repeated measurements in other runs, samples, wells, individuals or studies. Brackets tell where a record comes from. Letters hold for one entry only. A date in brackets names the month of the test.
# Tests used:
# Assay type in all cases: toxicity, cell-based
# HEK-293T = experiment: Multiplex assay against HEK293T; details: human;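 for Population Tubulin-Different-Phenotype (%): share of the cells with healthy nuclei that show this phenotype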
# Method in brief: (§1)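 Live cells carried four stains from seeding: Hoechst33342, BioTracker Green Microtubule Cytoskeleton Dye, MitoTracker Red and Annexin V Alexa Fluor 680. They were imaged on a CQ1 microscope at 37°C and 5% CO2 after compound addition. Using CellPathfinder machine-learning gating, cells were split into Hoechst high-intensity objects or normal cells, normal cells into healthy, pyknosed or fragmented nuclei, and pyknosed cells into mitotic or apoptotic; tubulin, mitochondrial-mass and membrane-permeability phenotypes are per cents of healthy-nucleus cells.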
# Fibroblast = experiment: Multiplex assay against human fibroblast; method in brief: as §1
# U2OS = experiment: Multiplex assay against U2OS; details: human; method in brief: as §1
# [1] = 12 h, 10 µM, compound concentration 10 uM, replicate 2
# [2] = 24 h, 10 µM, compound concentration 10 uM, replicate 1
# [3] = 24 h, 10 µM, compound concentration 10 uM, replicate 2
# [4] = 12 h, 10 µM, compound concentration 10 uM, replicate 1
# [5] = 12 h, 1 µM, compound concentration 1 uM, replicate 2
# [6] = 24 h, 1 µM, compound concentration 1 uM, replicate 2
# [7] = 12 h, 1 µM, compound concentration 1 uM, replicate 1
# [8] = 24 h, 1 µM, compound concentration 1 uM, replicate 1
smiles,measurement,setting,value
CNCc1ccccc1-c1csc([C@@H](C)Nc2nc(C)nc3cc(OC)c(OC)cc23)c1 [BAY-293],Population Apoptotic (%),HEK-293T; [1],8% and 34%
same,Population Mitochondria Different-Phenotype (%),HEK-293T; [1],24% and 82%
same,Population Healthy Nuclei (%),HEK-293T; [2],14% and 64%
same,Population Pyknosed Nuclei (%),HEK-293T; [2],56% and 17%
same,Population Apoptotic (%),HEK-293T; [3],46% and 5%
same,Population Hoechst High Intensity Objects (%),HEK-293T; [3],10% and 3%
same,Population Membrane Permeable-Phenotype (%),HEK-293T; [3],2% and 26%
same,Population Mitochondria Different-Phenotype (%),HEK-293T; [3],91% and 8%
same,Population Pyknosed Nuclei (%),HEK-293T; [3],48% and 4%
same,Population Hoechst High Intensity Objects (%),Fibroblast; [4],41% and 12%
same,Population Mitochondria Different-Phenotype (%),Fibroblast; [4],2% and 33%
same,Population Tubulin-Different-Phenotype (%),Fibroblast; [4],17% and 75%
same,Population Mitochondria Different-Phenotype (%),Fibroblast; [1],50% and 13%
same,Population Healthy Nuclei (%),Fibroblast; [2],7% and 48%
same,Population Mitochondria Different-Phenotype (%),Fibroblast; [2],22% and 3%
same,Population Mitotic Cells (%),Fibroblast; [2],10% and 61%
same,Population Healthy Nuclei (%),Fibroblast; [3],37% and 12%
same,Population Membrane Permeable-Phenotype (%),Fibroblast; [3],2% and 60%
same,Population Mitochondria Different-Phenotype (%),Fibroblast; [3],11% and 40%
same,Population Mitotic Cells (%),Fibroblast; [3],33% and 9%
same,Population Fragmented Nuclei (%),U2OS; [4],22% and 7%
same,Population Pyknosed Nuclei (%),U2OS; [4],41% and 12%
same,Population Healthy Nuclei (%),U2OS; [2],14% and 65%
Cc1cc(NC(=O)c2cccc(S(F)(F)(F)(F)F)c2)cc(-n2ccn3nc(-c4cccnc4)cc23)c1 [BAY-309],Population Apoptotic (%),HEK-293T; [4],65% and 16%
same,Population Apoptotic (%),HEK-293T; [1],7% and 45%
same,Population Mitochondria Different-Phenotype (%),HEK-293T; [1],14% and 59%
same,Population Pyknosed Nuclei (%),HEK-293T; [1],8% and 25%
same,Population Apoptotic (%),HEK-293T; [2],84% and 17%
same,Population Mitochondria Different-Phenotype (%),HEK-293T; [2],53% and 12%
same,Population Mitotic Cells (%),HEK-293T; [2],15% and 82%
same,Population Pyknosed Nuclei (%),HEK-293T; [2],50% and 12%
same,Population Apoptotic (%),HEK-293T; [3],5% and 54%
same,Population Fragmented Nuclei (%),HEK-293T; [3],15% and 2%
same,Population Membrane Permeable-Phenotype (%),HEK-293T; [3],28% and 7%
same,Population Mitochondria Different-Phenotype (%),HEK-293T; [3],5% and 65%
same,Population Pyknosed Nuclei (%),HEK-293T; [3],5% and 31%
same,Population Membrane Permeable-Phenotype (%),Fibroblast; [4],24% and 4%
same,Population Tubulin-Different-Phenotype (%),Fibroblast; [4],84% and 24%
same,Population Membrane Permeable-Phenotype (%),Fibroblast; [2],10% and 1%
same,Population Mitochondria Different-Phenotype (%),Fibroblast; [2],37% and 11%
same,Population Mitotic Cells (%),Fibroblast; [3],40% and 9%
same,Population Mitochondria Different-Phenotype (%),U2OS; [1],19% and 79%
same,Population Mitochondria Different-Phenotype (%),U2OS; [2],21% and 81%
same,Population Pyknosed Nuclei (%),U2OS; [2],6% and 23%
same,Population Mitotic Cells (%),U2OS; [3],4% and 62%
same,Population Pyknosed Nuclei (%),U2OS; [3],24% and 7%
Cc1cc(C)c(-n2ccn3nc(-c4cccnc4)cc23)cc1NC(=O)c1cc(C#N)cc(S(F)(F)(F)(F)F)c1 [BAY-826],Population Apoptotic (%),HEK-293T; [5],20% and 6%
same,Population Fragmented Nuclei (%),HEK-293T; [6],16% and 5%
same,Population Mitochondria Different-Phenotype (%),HEK-293T; [6],10% and 46%
same,Population Pyknosed Nuclei (%),HEK-293T; [6],4% and 25%
same,Population Membrane Permeable-Phenotype (%),Fibroblast; [7],21% and 5%
same,Population Tubulin-Different-Phenotype (%),Fibroblast; [7],56% and 14%
same,Population Mitochondria Different-Phenotype (%),Fibroblast; [5],10% and 36%
same,Population Mitotic Cells (%),Fibroblast; [5],50% and 8%
same,Population Membrane Permeable-Phenotype (%),Fibroblast; [8],22% and 4%
same,Population Tubulin-Different-Phenotype (%),Fibroblast; [8],34% and 4%
same,Population Apoptotic (%),Fibroblast; [6],20% and 84%
same,Population Membrane Permeable-Phenotype (%),Fibroblast; [6],0% and 41%
same,Population Mitochondria Different-Phenotype (%),Fibroblast; [6],5% and 25%
same,Population Mitotic Cells (%),Fibroblast; [6],80% and 15%
same,Population Mitotic Cells (%),U2OS; [8],50% and 15%
same,Population Pyknosed Nuclei (%),U2OS; [8],7% and 27%
same,Population Mitochondria Different-Phenotype (%),U2OS; [6],97% and 30%
CNC(=O)c1ccc(Nc2ncc(C(F)(F)F)c(NCc3nccnc3N(C)S(C)(=O)=O)n2)cc1 [DEFACTINIB],Population Tubulin-Different-Phenotype (%),HEK-293T; [7],"5% [compound entry A, 2021-10] and 18% [compound entry B, 2021-10]"
same,Population Tubulin-Different-Phenotype (%),HEK-293T; [5],"10% [compound entry A, 2021-10] and 42% [compound entry B, 2021-10]"
same,Population Tubulin-Different-Phenotype (%),HEK-293T; [4],"26% [compound entry A, 2021-10] and 2% [compound entry B, 2021-10]"
same,Population Apoptotic (%),HEK-293T; [1],"21% [compound entry A, 2021-10] and 3% [compound entry B, 2021-10]"
same,Population Tubulin-Different-Phenotype (%),HEK-293T; [1],"48% [compound entry A, 2021-10] and 10% [compound entry B, 2021-10]"
same,Population Fragmented Nuclei (%),HEK-293T; [6],"22% [compound entry A, 2021-10] and 5% [compound entry B, 2021-10]"
same,Population Mitochondria Different-Phenotype (%),HEK-293T; [6],"2% [compound entry A, 2021-10] and 15% [compound entry B, 2021-10]"
same,Population Tubulin-Different-Phenotype (%),HEK-293T; [6],"11% [compound entry A, 2021-10] and 62% [compound entry B, 2021-10]"
same,Population Mitochondria Different-Phenotype (%),HEK-293T; [2],"14% [compound entry A, 2021-10] and 3% [compound entry B, 2021-10]"
same,Population Pyknosed Nuclei (%),HEK-293T; [2],"17% [compound entry A, 2021-10] and 5% [compound entry B, 2021-10]"
same,Population Apoptotic (%),HEK-293T; [3],"28% [compound entry A, 2021-10] and 8% [compound entry B, 2021-10]"
same,Population Fragmented Nuclei (%),HEK-293T; [3],"5% [compound entry A, 2021-10] and 22% [compound entry B, 2021-10]"
same,Population Mitochondria Different-Phenotype (%),HEK-293T; [3],"21% [compound entry A, 2021-10] and 2% [compound entry B, 2021-10]"
same,Population Tubulin-Different-Phenotype (%),HEK-293T; [3],"62% [compound entry A, 2021-10] and 10% [compound entry B, 2021-10]"
same,Population Tubulin-Different-Phenotype (%),Fibroblast; [7],"6% [compound entry A, 2021-10] and 33% [compound entry B, 2021-10]"
same,Population Tubulin-Different-Phenotype (%),Fibroblast; [4],"36% [compound entry A, 2021-10] and 7% [compound entry B, 2021-10]"
same,Population Membrane Permeable-Phenotype (%),Fibroblast; [8],"5% [compound entry A, 2021-10] and 19% [compound entry B, 2021-10]"
same,Population Tubulin-Different-Phenotype (%),Fibroblast; [8],"7% [compound entry A, 2021-10] and 43% [compound entry B, 2021-10]"
same,Population Apoptotic (%),Fibroblast; [6],"0% [compound entry A, 2021-10] and 60% [compound entry B, 2021-10]"
same,Population Membrane Permeable-Phenotype (%),Fibroblast; [6],"0% [compound entry A, 2021-10] and 50% [compound entry B, 2021-10]"
same,Population Pyknosed Nuclei (%),Fibroblast; [6],"4% [compound entry A, 2021-10] and 19% [compound entry B, 2021-10]"
same,Population Tubulin-Different-Phenotype (%),Fibroblast; [6],"5% [compound entry A, 2021-10] and 20% [compound entry B, 2021-10]"
same,Population Mitochondria Different-Phenotype (%),Fibroblast; [2],"7% [compound entry A, 2021-10] and 1% [compound entry B, 2021-10]"
same,Population Tubulin-Different-Phenotype (%),Fibroblast; [2],"49% [compound entry A, 2021-10] and 4% [compound entry B, 2021-10]"
same,Population Fragmented Nuclei (%),U2OS; [7],"4% [compound entry A, 2021-10] and 22% [compound entry B, 2021-10]"
same,Population Membrane Permeable-Phenotype (%),U2OS; [5],"2% [compound entry A, 2021-10] and 16% [compound entry B, 2021-10]"
same,Population Membrane Permeable-Phenotype (%),U2OS; [4],"38% [compound entry A, 2021-10] and 12% [compound entry B, 2021-10]"
same,Population Fragmented Nuclei (%),U2OS; [1],"44% [compound entry A, 2021-10] and 10% [compound entry B, 2021-10]"
same,Population Mitochondria Different-Phenotype (%),U2OS; [1],"9% [compound entry A, 2021-10] and 28% [compound entry B, 2021-10]"
same,Population Fragmented Nuclei (%),U2OS; [8],"5% [compound entry A, 2021-10] and 22% [compound entry B, 2021-10]"
same,Population Membrane Permeable-Phenotype (%),U2OS; [8],"7% [compound entry A, 2021-10] and 40% [compound entry B, 2021-10]"
same,Population Apoptotic (%),U2OS; [6],"0% [compound entry A, 2021-10] and 65% [compound entry B, 2021-10]"
same,Population Membrane Permeable-Phenotype (%),U2OS; [6],"1% [compound entry A, 2021-10] and 38% [compound entry B, 2021-10]"
same,Population Pyknosed Nuclei (%),U2OS; [6],"1% [compound entry A, 2021-10] and 21% [compound entry B, 2021-10]"
same,Population Fragmented Nuclei (%),U2OS; [2],"18% [compound entry A, 2021-10] and 5% [compound entry B, 2021-10]"
same,Population Hoechst High Intensity Objects (%),U2OS; [2],"10% [compound entry A, 2021-10] and 2% [compound entry B, 2021-10]"
same,Population Membrane Permeable-Phenotype (%),U2OS; [2],"43% [compound entry A, 2021-10] and 8% [compound entry B, 2021-10]"
same,Population Pyknosed Nuclei (%),U2OS; [2],"30% [compound entry A, 2021-10] and 5% [compound entry B, 2021-10]"
same,Population Fragmented Nuclei (%),U2OS; [3],"47% [compound entry A, 2021-10] and 2% [compound entry B, 2021-10]"
same,Population Healthy Nuclei (%),U2OS; [3],"29% [compound entry A, 2021-10] and 91% [compound entry B, 2021-10]"
same,Population Pyknosed Nuclei (%),U2OS; [3],"22% [compound entry A, 2021-10] and 6% [compound entry B, 2021-10]"
